Whole data set: some 18,000 sequences, median “TetR repression strength (sort-seq, GFP reporter)” near 0.23, cut for the highest 2% near 0.68. The list shows a part of the results.

The experiment has as its target TetR (class B, Tn10) (UniProt P04483). Briefly: TetR repression strength (sort-seq, GFP reporter) (relative to tetO2 = 1); higher = stronger repression. Particulars: E. coli. An outline of the steps: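 In LB with 50 µg/mL chloramphenicol, E. coli SIG10-MAX holding a low-copy library with eight randomized operator positions between a constitutive promoter and sfGFP, plus constitutive TetR, grew for 5 h at 37 °C. FACS then sorted 10^6 cells into 13 fluorescence bins for Illumina sequencing of each bin. Repression strength equals the top bin index plus one less the read-weighted mean bin, normalized to the unaltered operator. Values from three independent transformations were averaged when reads were ≥30 in every replicate and the CV was ≤0.5.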
UniProt P04483, sequence (P04483 whole entry): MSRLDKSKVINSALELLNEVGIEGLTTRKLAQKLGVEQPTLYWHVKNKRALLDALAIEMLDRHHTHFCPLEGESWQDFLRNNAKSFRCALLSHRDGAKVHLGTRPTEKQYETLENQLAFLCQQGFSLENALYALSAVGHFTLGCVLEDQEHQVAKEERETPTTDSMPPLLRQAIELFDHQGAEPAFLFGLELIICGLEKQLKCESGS
TCCCGTGCAGTAACGGAGA gave a TetR repression strength of 0.114.
The sequence TCCCCAGCAGTGAGTGAGA registered a TetR repression strength of 0.167.
In the case of TCCCCGAGAGTACCGGAGA it was 0.159; in that of TCCCCGGAAGTGACAGAGA, 0.26; in that of TCCCGATGAGTAATTGAGA, 0.222.
With TCCCAGGGAGTCGCAGAGA, the TetR repression strength was determined as 0.511.
Regarding TCCCTGTGAGTACAGGAGA, the TetR repression strength worked out at 0.189.
In the case of TCCCATATAGTACTCGAGA it was 0.207; in that of TCCCGTCGAGTCGGAGAGA, 0.327.
In the case of TCCCGACCAGTCGGGGAGA it was 0.112; in that of TCCCGGTGAGTGTTAGAGA, 0.453; in that of TCCCCTAAAGTGGGGGAGA, 0.325.
In the case of TCCCTAGTAGTACGAGAGA it was 1.22; in that of TCCCACACAGTGATTGAGA, 0.379; in that of TCCCAAGCAGTCTTTGAGA, 0.375.
The sequence TCCCAGCGAGTGGCAGAGA came in with a TetR repression strength of 0.585.
Consider TCCCTCAAAGTGGGAGAGA, for which the TetR repression strength came out at 0.0218.
In turn, TCCCGCACAGTCTAAGAGA returned a TetR repression strength of 0.246.
Next, TCCCTGAGAGTCATCGAGA: 0.104.
In the case of TCCCGAAGAGTAGGAGAGA it was 0.153.
In the case of TCCCTTACAGTGGTGGAGA it was 0.233; in that of TCCCTAGCAGTAGACGAGA, 0.409; in that of TCCCGCGAAGTAAATGAGA, 0.208.
TCCCATCAAGTGTCCGAGA yielded a TetR repression strength of 0.424.
Next, TCCCGGAGAGTGGCAGAGA: 0.169; TCCCAGTAAGTGCCTGAGA: 0.124.
Next, TCCCTCGAAGTTTTGGAGA: 0.205.
In the case of TCCCAGAGAGTGTGTGAGA it was 0.257.
Sequence TCCCTTAAAGTGGACGAGA gave a TetR repression strength of 0.225.
TCCCCTGGAGTATAGGAGA gave a TetR repression strength of 0.221.
Next, TCCCTGTTAGTAGACGAGA: 0.194; TCCCCGATAGTGTTGGAGA: 0.247.
In the case of TCCCCGCTAGTAGTCGAGA it was 0.127.
As to TCCCTCGGAGTGCTTGAGA, the TetR repression strength came to 0.224.
Next, TCCCAGGGAGTGCCGGAGA: 0.19.
In the case of TCCCGTAGAGTTGACGAGA it was 0.0976.
Next, TCCCAGTCAGTGGGAGAGA: 0.296; TCCCAGCTAGTGAGAGAGA: 0.36; TCCCTTCCAGTTCTGGAGA: 1.04.
Sequence TCCCAAGCAGTTGCAGAGA had a TetR repression strength of 0.178.
Next, TCCCGATGAGTCTTTGAGA: 0.0786; TCCCGGCTAGTCGCCGAGA: 0.177.
Next, TCCCGGGGAGTATGTGAGA: 0.455.
In the case of TCCCGATTAGTTTTTGAGA it was 0.493; in that of TCCCGTTGAGTCCTCGAGA, 0.287.
On to TCCCGACAAGTGTTGGAGA, for which the TetR repression strength came out at 0.292.
As to TCCCCCCAAGTGCTGGAGA, the TetR repression strength came to 0.315.
Turning to TCCCGCGTAGTGGGGGAGA, the TetR repression strength amounted to 0.203.
Sequence TCCCGTCGAGTTATCGAGA yielded a TetR repression strength of 0.284.
In the case of TCCCACTTAGTAGGTGAGA it was 0.147; in that of TCCCACCGAGTACACGAGA, 0.315.
Next, TCCCCAGAAGTGGCAGAGA: 0.263; TCCCTCTGAGTGCGAGAGA: 0.281; TCCCTCGTAGTCCAGGAGA: 0.207.
Next, TCCCAGTGAGTGGTTGAGA: 0.188; TCCCTCTAAGTGCGAGAGA: 0.479.
As for TCCCATGGAGTTTTAGAGA, the TetR repression strength is 0.281.
Regarding TCCCTGCCAGTCGTAGAGA, the TetR repression strength worked out at 0.311.
In the case of TCCCGTAGAGTAAAGGAGA it was 0.196.
In the case of TCCCGTTTAGTTGGGGAGA it was 0.314.
In the case of TCCCATCTAGTATCTGAGA it was 0.199.
In turn, TCCCTACAAGTGAGGGAGA came in with a TetR repression strength of 0.0864.
In the case of TCCCCAATAGTGGGTGAGA it was 0.279; in that of TCCCAGGAAGTTCGAGAGA, 0.22; in that of TCCCTGATAGTAGGTGAGA, 0.197.
Next, TCCCGCTGAGTTTATGAGA: 0.411.
With TCCCTATTAGTTCTAGAGA, the TetR repression strength was determined as 0.419.
The sequence TCCCTGAAAGTTGCAGAGA came in with a TetR repression strength of 0.174.
TCCCGTGCAGTGAGGGAGA came in with a TetR repression strength of 0.278.
Turning to TCCCTGTAAGTTCACGAGA, the TetR repression strength turned out to be 0.218.
On to TCCCGGGGAGTGCCCGAGA, for which the TetR repression strength came to 0.263.
In turn, TCCCAGCGAGTATGAGAGA returned a TetR repression strength of 0.0754.
As for TCCCTCAAAGTACAGGAGA, the TetR repression strength is 0.228.
Next, TCCCCAACAGTATCTGAGA: 0.355.
Next, TCCCATTCAGTTGAAGAGA: 0.171.
For TCCCGGGGAGTGCAAGAGA, the TetR repression strength was 0.334.
Next, TCCCCAGCAGTGCGTGAGA: 0.0161; TCCCTGTTAGTGGGCGAGA: 0.301.
In the case of TCCCCTCAAGTCCAGGAGA it was 0.159.
In the case of TCCCTATCAGTAGAAGAGA it was 0.457; in that of TCCCAGGTAGTGTCGGAGA, 0.195.
TCCCGGGTAGTACAAGAGA: the TetR repression strength came out at 0.335.
For the sequence TCCCGTTTAGTCACAGAGA, the TetR repression strength was 0.364.
In the case of TCCCTACCAGTGTTGGAGA it was 0.37; in that of TCCCGCTTAGTGGCAGAGA, 0.227; in that of TCCCGTTTAGTGAATGAGA, 0.238.
Take TCCCGCACAGTGGGAGAGA: the TetR repression strength is 0.157.
Take TCCCGGTTAGTTGGAGAGA: the TetR repression strength amounted to 0.158.
TCCCAGTGAGTTAAGGAGA came in with a TetR repression strength of 0.151.
For TCCCTTGAAGTGCGCGAGA, the TetR repression strength worked out at 0.218.
In turn, TCCCATGCAGTCTCGGAGA displayed a TetR repression strength of 0.0532.
In the case of TCCCGTAAAGTGCCGGAGA it was 0.307; in that of TCCCCTTGAGTTTTTGAGA, 0.278.
Next, TCCCAGGGAGTGTGCGAGA: 0.196; TCCCGGTCAGTGCAGGAGA: 0.531.
In the case of TCCCGTAGAGTACTTGAGA it was 0.0106; in that of TCCCGGTAAGTGGAGGAGA, 0.211; in that of TCCCGAAAAGTGAGAGAGA, 0.106.
Sequence TCCCCCCTAGTTGTGGAGA showed a TetR repression strength of 0.213.
In the case of TCCCGAGAAGTGATAGAGA it was 0.425.
With TCCCGCCGAGTTAAGGAGA, the TetR repression strength stood at 0.19.
As for TCCCGGGGAGTTCGAGAGA, the TetR repression strength amounted to 0.243.

The values above are taken from a collection of fitness landscapes (doi:10.1038/s41467-024-54723-y).
